# Experimental data as given in PubChem BioAssay AID1508624 (National Center for Advancing Translational Sciences (NCATS), 2021).
# The campaign covered roughly 48,000 compounds. About 120 (0.25%) were called active. About 4% were inconclusive and are not listed. Calls follow the shape of the dose curve; as a rule, active = well fitted activation curve with a large enough effect; inconclusive = small, poorly fitted or top-dose-only effect, or another doubt; inactive = no such curve, though single readings can be large or run the other way. The list shows a part of the results.
# Assay: Primary qHTS for Identification of Small Molecule Activators of Huntingtin-Antisense Promoter Activity; also: nearly all actives have a fitted effect of over 55% in size
# Settings: HEK293 HTT-AS promoter firefly luciferase reporter (activity 0% = vehicle and -100% = no light), 24 h; series mostly up to 57.5 µM; activity change, positive = activation: at the top concentration
# Procedure, shortened: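 HEK293 cells carrying firefly luciferase reporters were seeded at 2,500 per well in Opti-MEM and cultured for 24 h. They were then treated with compounds at up to 57.5 uM final for 24 h at 37 degrees C before Dual-Glo luminescence readout.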
row,Structure (SMILES),"activity change, positive = activation"
1,CCOC(=O)c1c(C)c(-c2ccccc2)n(CC(=O)Nc2cc(OC)cc(OC)c2)c1C,inactive: -31.2%
2,O=c1ccn([C@@H]2O[C@H](CO)[C@H](O)[C@H]2O)c(=O)[nH]1,inactive: 4.46%
3,CC(C)(C)NS(=O)(=O)c1ccc2nc(NC(=O)c3cccnc3)sc2c1,inactive: 4.52%
4,COC(=O)CNC(=O)Nc1cc(C(=O)NCc2ccc(C)cc2)ccc1N1CCCC1,inactive: 3.07%
5,COC(=O)C1CCN(S(=O)(=O)c2cc3c4c(c2)C(C)C(=O)N4CCC3)CC1 (stereo not drawn),inactive: -9.94%
6,CC(=O)N1c2ccccc2CC1C(=O)N1CCN(c2ccc(F)cc2)CC1 (stereo not drawn),inactive: -8.11%
7,COc1ccc(C)cc1NC(=O)c1oc2ccc(S(=O)(=O)N(C)C3CCCCC3)cc2c1C,inactive: -7.38%
8,O=C(Nc1ccc(F)cc1F)c1ccc(CN2CC(=O)N3CCCCC3C2=O)cc1 (stereo not drawn),inactive: 0%
9,CC(C)(C)c1cc(C(C)(C)C)c2oc(=O)c(-c3nc4ccccc4[nH]3)cc2c1,inactive: -15.6%
10,O=C(CSc1nc2ccccc2c2nc(-c3ccccc3)nn12)Nc1ccc(Br)cc1,inactive: 8.7%
11,Cc1ccc(Cn2c(SCC(=O)NCc3ccc(Cl)cc3)nc3ccsc3c2=O)cc1,inactive: -18.2%
12,CCc1cc(C(=O)Nc2c(C)nn(Cc3ccc(C)cc3)c2C)no1,inactive: -20.6%
13,c1cnc2cc3c(cc2n1)C1CNCC3C1,inactive: -16.6%
14,Cc1ccc2nc(-c3ccsc3)c(Nc3ccccc3C)n2c1,inactive: -4.83%
15,Cc1nc2nncn2c(N2CCN(c3ccccc3)CC2)c1C,inactive: -29.7%
16,COc1ccccc1/C=C/c1nc(C#N)c(N2CCCCC2)o1,inactive: -2.05%
17,O=C(NCc1ccc(F)cc1)c1ccc(CSCc2cccc(Cl)c2)o1,inactive: -17.6%
18,CN(C)CCOc1ccc(-c2nc(-c3ccc4c(c3)CCC4=NO)c(-c3ccncc3)[nH]2)cc1,inactive: -6.1%
19,COCCNC(=O)Cc1ccc(NC(=O)N2CCCCc3ccccc32)cc1,inactive: 2.43%
20,COc1ccc(-n2c(/C=C/c3ccccc3F)nc3cc(OC)c(OC)cc3c2=O)cc1Cl,inactive: -35.7%
21,COCCNC(=O)c1cnn(-c2ccc(C)cc2C)c1C1CCN(C(=O)OC(C)(C)C)CC1,inactive: 2.63%
22,Cc1ccccc1Cn1c(C(=O)O)c(CNCc2cccc(F)c2)c2ccccc21,inactive: -14.6%
23,COC(=O)c1scc(-c2ccccc2)c1S(=O)(=O)Nc1ccccc1,inactive: -18.9%
24,CCN(CC)C(=O)C1CCN(S(=O)(=O)c2ccc3c(c2)CCCN3C(C)=O)CC1,inactive: -22%

row,Structure (SMILES),"activity change, positive = activation"
1,Cc1ccc(-c2cc(C(F)(F)F)n3nc(C(=O)Nc4ccc(Cl)cc4Cl)cc3n2)cc1,inactive: -4.45%
2,Cc1ccc(NC(=O)CSc2ncc3c(n2)-c2ccccc2N(Cc2cccc(F)c2)S3(=O)=O)cc1F,inactive: -10.2%
3,Cc1ccc(N2CC(NC(=O)/C=C\c3ccc4c(c3)OCO4)CC2=O)cc1C (stereo not drawn),inactive: -16.5%
4,O=C1c2ccccc2C(=O)C1(c1ccccc1)N1CCN(c2cccc(Cl)c2)CC1,inactive: -13.5%
5,CC(C)c1ccc(S(=O)(=O)c2nnn3c2nc(NCCc2ccccc2)c2sccc23)cc1,inactive: -26.8%
6,Cc1ccc(CNC(=O)c2cc3sccc3n2Cc2ccc(Cl)cc2)cc1,inactive: -21.7%
7,CCCn1c(=O)c2sccc2n2c(CCCC(=O)NCCc3ccc(Cl)cc3)nnc12,inactive: -9.57%
8,CC(CCc1ccccc1)NC(=O)Cn1ncc2c3ccccc3n(Cc3ccc(F)cc3)c2c1=O (stereo not drawn),inactive: -2.54%
9,CC(=O)Nc1ccc(S(=O)(=O)NCC2CCC(C(=O)NCCc3ccccc3)CC2)cc1 (stereo not drawn),inactive: 3.49%
10,Cc1nn(C(=O)c2cccc([N+](=O)[O-])c2C)c(C)c1S(=O)(=O)N1CCOCC1,inactive: -6.48%
11,CCO[C@H](Cc1ccc(OCCc2ccc(OS(C)(=O)=O)cc2)cc1)C(=O)O,inactive: 1.35%
12,COCC(=O)Oc1c(Sc2ccc(C)cc2)c(C)nn1C(C)(C)C,inactive: -2.48%
13,COc1cc(-c2ccno2)ccc1S(=O)(=O)N1CCN(c2cc(C)ccc2C)CC1,inactive: -20.1%
14,COc1cccc(N2CC(NC(=O)C(c3ccccc3)c3ccccc3)CC2=O)c1 (stereo not drawn),inactive: -16.7%
15,COc1cccc(NC(=O)C2CCCN(S(=O)(=O)c3c(C)[nH]c(=O)[nH]c3=O)C2)c1 (stereo not drawn),inactive: -18.5%
16,O=C(Nc1ccc(Br)c2cccnc12)c1cccc2ccccc12,inactive: -8.79%
17,CCN(c1cc(C)cc(C)c1)S(=O)(=O)c1nnc(NC(=O)C2CCCCC2)s1,inactive: -10.7%
18,Cc1cc(C)cc(NC(=O)CCC(=O)N2Cc3ccccc3Oc3ncccc32)c1,inactive: -26.9%
19,Cc1ccc(CCNC(=O)c2cc3sccc3n2Cc2ccc(C)cc2)cc1,inactive: -26.3%
20,Cc1c(Cl)cccc1-c1ccc(CNc2ccc3[nH]c(=O)[nH]c3c2)o1,inactive: -33.8%
21,Cc1c(Cl)ccc2sc(NC(=O)c3ccc(S(=O)(=O)N4CCCc5ccccc54)cc3)nc12,inactive: -16.5%
22,CCCc1cnc2c(c1SCC(=O)N(C)c1ccccc1)c(=O)n(C)c(=O)n2C,inactive: -11.1%
23,CC1CCN(S(=O)(=O)c2ccc3c(c2)oc(=O)n3CC(=O)NCc2ccc(F)cc2)CC1,inactive: -88.7%
24,Cc1cc(C)cc(-n2c(SCC(=O)N3CCCCC3)nc3c([nH]c4ccccc43)c2=O)c1,inactive: -10.4%
